From a compilation of properties of binary mixtures (doi:10.1002/cjce.21638)
Some of these densities may be calculated back from excess volumes.

Experiment: xn = mol fraction of the nth substance listed
Conditions: 101 kPa

c1cc[nH]c1 + CC[n+]1ccn(C)c1.CS(=O)(=O)[O-]
mass density [kg/m3]
Conditions	x1 = 0.2	x1 = 0.3	x1 = 0.4	x1 = 0.5	x1 = 0.6	x1 = 0.7	x1 = 0.8
298.15 K	–	1196	–	1166	1135.1	1110.8	–
303.15 K	1210	1193	1178	1163	1131.5	1107.2	1075.1
308.15 K	–	1190	1172	1159	1127.9	1103.6	1071.3
313.15 K	1203	1186	1169	1156	1124.4	1099.9	1067.5
318.15 K	–	1183	1165	1152	1120.8	1096.3	1063.9
323.15 K	–	1179	1162	–	1117.3	1092.7	1060.1

c1ccc2c(c1)CCN2 + CC[n+]1ccn(C)c1.CS(=O)(=O)[O-]
mass density [kg/m3]
Conditions	298.15 K	303.15 K	308.15 K	313.15 K	318.15 K	323.15 K
x1 = 0.2	1215	–	–	1205	1201	1198
x1 = 0.3	1201	1198	1195	1191	1188	1185
x1 = 0.4	1188	1185	1182	1178	1175	1172
x1 = 0.5	1168	–	1161	1158	–	1151
x1 = 0.6	1149.7	1146.3	1143.1	1139.9	1136.5	1133
x1 = 0.7	1135.1	1131.6	1128	1124.4	–	1117.3

c1ccc2ncccc2c1 + CC[n+]1ccn(C)c1.CS(=O)(=O)[O-]
mass density [kg/m3]
Conditions	298.15 K	303.15 K	308.15 K	313.15 K	318.15 K	323.15 K
x1 = 0.2	1220	–	1213	1210	1206	1203
x1 = 0.3	1205	–	1198	1194	1191	1187
x1 = 0.4	1189	–	1180	–	1175	1172
x1 = 0.5	–	1181	1177	1173	1170	1166
x1 = 0.6	1167	1164	1160	–	1153	–
x1 = 0.7	1150	–	1143	1139	1135.6	–

CC[n+]1ccn(C)c1.CS(=O)(=O)[O-] + O
mass density [kg/m3]
Conditions	298.15 K	303.15 K	308.15 K	313.15 K	318.15 K	323.15 K
x2 = 0.2	1231	1228	–	–	–	1215
x2 = 0.3	1224	1221	1218	–	–	1208
x2 = 0.4	1221	1218	–	1211	1208	1205
x2 = 0.5	1218	1215	1212	1209	–	1202
x2 = 0.6	1212	–	1205	1202	1198	–
x2 = 0.7	1190	1187	1184	1180	1177	1173.5

CC[n+]1ccn(C)c1.CS(=O)(=O)[O-] + c1ccncc1
mass density [kg/m3]
Conditions	x2 = 0.2	x2 = 0.3	x2 = 0.4	x2 = 0.5	x2 = 0.6	x2 = 0.7	x2 = 0.8
298.15 K	–	1204	1188	1171	1148	1124	1093.3
303.15 K	1214	–	–	–	1147	1120	–
308.15 K	1210	–	1184	1164	1141	–	1084
313.15 K	1207	–	1177	1160	1137	1112.2	1079.9
318.15 K	1203	–	1174	1155	–	1103	1078
323.15 K	1198	–	1170	1153	1130	1104.4	1071.7

CC[n+]1ccn(C)c1.CS(=O)(=O)[O-] + c1ccsc1
mass density [kg/m3]
Conditions	x2 = 0.2	x2 = 0.3	x2 = 0.4	x2 = 0.5	x2 = 0.6	x2 = 0.7	x2 = 0.8
298.15 K	1226	1218	1213	1210	1200	1192	1182
303.15 K	1222	1215	1210	1206	1197	–	1180
308.15 K	1219	–	1206	1202	1193	1184	1174
313.15 K	1215	1208	–	1198	1189	1180	1172
318.15 K	–	1204	1199	1194	1186	1176	1169
323.15 K	1209	1201	–	–	1182	1173	–
